# Results taken from the supplement of paper PMC12217912.
# The list shows a part of the results. The full chains were built here from the parent and the listed change. Values near 0.05 are background.
# B1: TEV protease; numbered along this chain (parent)
# chain: MGESLFKGPRDYNPISSSICHLTNESDGHTTSLYGIGFGPFIITNKHLFRRNNGTLVVQSLHGVFKVKDTTTLQQHLVDGRDMIIIRMPKDFPPFPQKLKFREPQREERICLVTTNFQTKSMSSMVSDTSCTFPSGDGIFWKHWIQTKDGQCGSPLVSTRDGFIVGIHSASNFTNTNNYFTSVPKNFMELLTNQEAQQWVSGWRLNADSVLWGGHKVFMVKPEEPFQPVKEATQL
# Variants of: B1
# Test: raw area under fraction-flipped curve 0-4 h after induction (AUC4h, not background-subtracted), DNA-recorder readout of cleavage of the substrate (dimensionless); higher = more cleavage of the substrate by the protease variant
# Conditions: temperature: 34 °C; time window: 0-4 h after rhamnose induction
# Procedure: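 In vivo DNA recorder in E. coli TOP10(DE3) ΔrhaA at 34 °C. Each TEVp single-site mutant (parent TEVp 0) is paired with a single-site variant of the 7-mer TEVs (canonical ENLYFQ|S). The substrate sits between flexible linkers in a Bxb1-sfGFP-TEVs-SsrA fusion, so cleavage stabilises Bxb1 and speeds flipping of a recombination array, read by NGS. The value is the raw area under the fraction-flipped curve over 0-4 h after rhamnose induction (AUC4h), with ≥20 reads per time point. It is not background-subtracted; inactive controls average about 0.047.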
# 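Further: Bxb1 expression induced with 0.2% (w/v) L-rhamnose at OD600 near 0.5, cultures sampled hourly, flipped fraction per protease–substrate barcode pair counted by paired-end Illumina sequencing.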
Variant,area with substrate ENLAFQS,area with substrate ENLCFQS,area with substrate ENLDFQS,area with substrate ENLEFQS,area with substrate ENLFFQS,area with substrate ENLIFQS,area with substrate ENLKFQS,area with substrate ENLLFQS,area with substrate ENLNFQS,area with substrate ENLPFQS,area with substrate ENLQFQS,area with substrate ENLRFQS,area with substrate ENLSFQS,area with substrate ENLVFQS,area with substrate ENLGFQS,area with substrate ENLHFQS,area with substrate ENLWFQS,area with substrate ENLMFQS,area with substrate ENLTFQS
MGESLFKGPRDYNPISSSICHLTNESDGHTTSLYGIGFGPFIITNKHLFRRNNGTLVVQSLHGVFKVKDTTTLQQHLVDGRDMIIIRMPKDFPPFPQKLKFREPQREERICLVTTNFQTKSMSSMVSDTSCTFPSGDGIFWKHWIQTKDGQCGSPLVSTRDGFIVGIHSASNFTNTNNYFTSVPKNFMELLTNQEAQQWVSGWRLFADSVLWGGHKVFMVKPEEPFQPVKEATQL [N206F],0.0677,0.0781,0.06,0.0564,0.11,0.0786,0.0836,0.0631,0.0678,0.0502,0.0588,0.0679,0.0647,0.0659,–,–,–,–,–
MGESLFKGPRDYNPISSSICHLTNESDGHTTSLYGIGFGPFIITNKHLFRRNNGTLVVQSLHGVFKVKDTTTLQQHLVDGRDMIIIRMPKDFPPFPQKLKFREPQREERICLVTTNFQTKSMSSMVSDTSCTFPSGDGIFWKHWIQTKDGQCGSPLVSTRDGFIVGIHSASNFTNTNNYFTSVPKNFMELLTNQEAQQWVSGWRLNSDSVLWGGHKVFMVKPEEPFQPVKEATQL [A207S],0.0674,0.0849,0.0657,–,0.0837,0.0678,0.0714,0.0848,0.0728,–,0.0705,0.0794,0.0751,0.0773,0.0718,0.0569,0.0782,–,–
MGESLFKGPRDYNPISSSICHLTNESDGHTTSLYGIGFGPFIITNKHLFRRNNGTLVVQSLHGVFKVKDTTTLQQHLVDGRDMIIIRMPKDFPPFPQKLKFREPQREERICLVTTNFQTKSMSSMVSDTSCTFPSGDGIFWKHWIQTKDGQCGSPLVSTRDGFIVGIHSASNFTNTNNYFTSVPKNFMELLTNQEAQQWVSGWRLNIDSVLWGGHKVFMVKPEEPFQPVKEATQL [A207I],0.0674,0.039,–,0.059,0.0632,–,0.0623,0.0587,–,0.0715,–,0.0444,0.0493,0.0871,–,–,0.0503,–,–
MGESLFKGPRDYNPISSSICHLTNESDGHTTSLYGIGFGPFIITNKHLFRRNNGTLVVQSLHGVFKVKDTTTLQQHLVDGRDMIIIRMPKDFPPFPQKLKFREPQREERICLVTTNFQTKSMSSMVSDTSCTFPSGDGIFWKHWIQTKDGQCGSPLVSTRDGFIVGIHSASNFTNTNNYFTSVPKNFMELLTNQEAQQWVSGWRLNAISVLWGGHKVFMVKPEEPFQPVKEATQL [D208I],0.064,0.0571,0.064,0.0624,0.0843,0.0656,0.0698,–,0.0693,0.0665,–,–,0.0566,0.0626,0.0648,0.0702,0.0561,0.0328,0.0602
MGESLFKGPRDYNPISSSICHLTNESDGHTTSLYGIGFGPFIITNKHLFRRNNGTLVVQSLHGVFKVKDTTTLQQHLVDGRDMIIIRMPKDFPPFPQKLKFREPQREERICLVTTNFQTKSMSSMVSDTSCTFPSGDGIFWKHWIQTKDGQCGSPLVSTRDGFIVGIHSASNFTNTNNYFTSVPKNFMELLTNQEAQQWVSGWRLNACSVLWGGHKVFMVKPEEPFQPVKEATQL [D208C],0.0579,0.0517,0.0592,0.0741,0.0684,0.0763,0.0704,–,–,0.059,0.075,–,0.0595,–,–,0.0608,–,–,–
MGESLFKGPRDYNPISSSICHLTNESDGHTTSLYGIGFGPFIITNKHLFRRNNGTLVVQSLHGVFKVKDTTTLQQHLVDGRDMIIIRMPKDFPPFPQKLKFREPQREERICLVTTNFQTKSMSSMVSDTSCTFPSGDGIFWKHWIQTKDGQCGSPLVSTRDGFIVGIHSASNFTNTNNYFTSVPKNFMELLTNQEAQQWVSGWRLNAFSVLWGGHKVFMVKPEEPFQPVKEATQL [D208F],0.0651,0.0399,0.0629,–,0.07,–,0.0617,0.0498,0.0523,0.0652,0.0614,0.067,0.0641,0.0678,–,0.0682,0.0779,–,–
MGESLFKGPRDYNPISSSICHLTNESDGHTTSLYGIGFGPFIITNKHLFRRNNGTLVVQSLHGVFKVKDTTTLQQHLVDGRDMIIIRMPKDFPPFPQKLKFREPQREERICLVTTNFQTKSMSSMVSDTSCTFPSGDGIFWKHWIQTKDGQCGSPLVSTRDGFIVGIHSASNFTNTNNYFTSVPKNFMELLTNQEAQQWVSGWRLNARSVLWGGHKVFMVKPEEPFQPVKEATQL [D208R],0.0613,0.0639,0.0698,0.0477,0.067,0.0707,–,–,0.0604,0.0576,–,0.0314,0.0619,0.0453,–,0.0516,–,–,–
MGESLFKGPRDYNPISSSICHLTNESDGHTTSLYGIGFGPFIITNKHLFRRNNGTLVVQSLHGVFKVKDTTTLQQHLVDGRDMIIIRMPKDFPPFPQKLKFREPQREERICLVTTNFQTKSMSSMVSDTSCTFPSGDGIFWKHWIQTKDGQCGSPLVSTRDGFIVGIHSASNFTNTNNYFTSVPKNFMELLTNQEAQQWVSGWRLNATSVLWGGHKVFMVKPEEPFQPVKEATQL [D208T],0.0666,0.0539,0.0881,0.0588,0.0737,0.062,0.0583,0.0754,0.0661,0.0692,–,–,0.0777,–,–,0.0714,0.0645,–,0.0572
MGESLFKGPRDYNPISSSICHLTNESDGHTTSLYGIGFGPFIITNKHLFRRNNGTLVVQSLHGVFKVKDTTTLQQHLVDGRDMIIIRMPKDFPPFPQKLKFREPQREERICLVTTNFQTKSMSSMVSDTSCTFPSGDGIFWKHWIQTKDGQCGSPLVSTRDGFIVGIHSASNFTNTNNYFTSVPKNFMELLTNQEAQQWVSGWILNADSVLWGGHKVFMVKPEEPFQPVKEATQL [R204I],0.063,0.0752,0.0599,0.0624,0.0871,0.0718,0.0672,0.0647,0.0597,0.0613,0.0615,0.0711,0.0585,0.0757,–,0.0727,0.0736,0.0577,–
